Among all 310,000 compounds or so, about 2,200 (0.71%) showed an effect of 50% or more. Effects have a minus sign here. This is one part of the list.
target: human ether-à-go-go-related gene (hERG) potassium channel (human, UniProt Q12809); experiment: primary screen, population patch clamp on CHO cells stably expressing hERG
Sequence (Q12809 whole entry, looked up): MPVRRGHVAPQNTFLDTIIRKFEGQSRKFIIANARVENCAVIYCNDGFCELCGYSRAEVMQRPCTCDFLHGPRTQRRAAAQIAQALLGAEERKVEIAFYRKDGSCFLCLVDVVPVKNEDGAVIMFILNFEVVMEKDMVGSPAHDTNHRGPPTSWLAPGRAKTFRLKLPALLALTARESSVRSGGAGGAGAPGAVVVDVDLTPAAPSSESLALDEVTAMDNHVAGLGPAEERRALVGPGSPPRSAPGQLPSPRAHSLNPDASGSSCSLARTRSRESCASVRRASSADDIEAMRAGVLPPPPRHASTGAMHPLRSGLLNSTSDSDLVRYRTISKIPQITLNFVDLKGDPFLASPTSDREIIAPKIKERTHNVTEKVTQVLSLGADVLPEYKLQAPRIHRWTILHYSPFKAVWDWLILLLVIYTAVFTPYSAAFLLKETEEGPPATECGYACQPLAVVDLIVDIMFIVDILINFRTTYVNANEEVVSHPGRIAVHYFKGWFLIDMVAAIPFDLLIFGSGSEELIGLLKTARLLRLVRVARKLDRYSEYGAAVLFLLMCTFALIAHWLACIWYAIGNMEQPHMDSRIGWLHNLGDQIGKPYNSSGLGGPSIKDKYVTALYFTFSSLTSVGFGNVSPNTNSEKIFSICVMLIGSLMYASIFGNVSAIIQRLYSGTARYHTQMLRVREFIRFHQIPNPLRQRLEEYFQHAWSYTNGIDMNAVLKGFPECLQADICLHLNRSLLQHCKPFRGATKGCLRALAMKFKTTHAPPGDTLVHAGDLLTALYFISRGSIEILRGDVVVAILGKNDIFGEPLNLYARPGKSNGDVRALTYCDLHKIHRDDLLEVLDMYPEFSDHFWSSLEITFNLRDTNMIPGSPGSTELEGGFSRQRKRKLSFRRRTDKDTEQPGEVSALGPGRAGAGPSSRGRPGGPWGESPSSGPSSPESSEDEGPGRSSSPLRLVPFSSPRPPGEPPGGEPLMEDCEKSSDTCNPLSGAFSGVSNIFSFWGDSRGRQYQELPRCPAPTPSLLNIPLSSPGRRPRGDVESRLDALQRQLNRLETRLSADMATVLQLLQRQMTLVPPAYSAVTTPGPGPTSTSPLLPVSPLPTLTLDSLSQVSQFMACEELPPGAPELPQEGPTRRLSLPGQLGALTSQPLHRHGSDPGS

Compound | hERG current change (%, negative = inhibition) at 1uM
CCOC(=O)CSc1nc2sc3c(c2c(=O)[nH]1)CC(C)(CC)OC3 (centres unmarked) | 8.73%
Nc1nnc(CSCc2ccccc2)s1 | 1.3%
COc1cc(/C=N/Nc2nc(-c3ccc(S(=O)(=O)N(C)C)cc3)cs2)ccc1O | 6.36%
CCCCN(C(=O)c1cccc(N2C(=O)c3ccccc3C2=O)c1)c1c(N)n(CC(C)C)c(=O)[nH]c1=O | -3.8%
O=C(Nc1ccc(OC(F)(F)F)cc1)c1ccc(-n2cncn2)nc1 | 0.916%
Cc1ccc(-n2nnc3c(=O)n(CC(=O)N4CCC(C)CC4)cnc32)cc1 | -20%
Cc1cccc(C)c1NC(=O)CN1CCc2ccccc2C1 | 15.9%
COc1ccc(-n2c(SCc3ccc(C#N)cc3)nnc2-c2ccccn2)cc1 | -18.5%
Nc1ccc(Oc2ccc3c(c2)OCO3)cc1 | 15.2%
Cc1cccc(NC(=O)CCC(=O)N/N=C/c2ccco2)c1C | 10%
C=CCSc1nccc(-c2nn(-c3ccc(C)cc3)ccc2=O)n1 | 17.3%
COc1ccc(-n2ccnc(SCC(=O)NCc3ccccc3Cl)c2=O)cc1 | 4.72%
Cc1cnc(-c2nnc(N(C)C(=O)c3cccnc3)s2)cn1 | 10.2%
CC(O)(C#CCN1CCCC1)c1ccccc1 (centres unmarked) | 4.16%
O=C(O)CCC(=O)N1CCC[C@H]1C(=O)O | -9.92%
CCOc1ccccc1N(CC(=O)NCC1CCCO1)C(=O)CCC(=O)Nc1nccs1 (centres unmarked) | 4.55%
CCCCn1c(NC(=O)c2ccc(F)cc2)c(C#N)c2nc3ccccc3nc21 | 7.71%
O=C(COC(=O)c1ccc(Cl)nc1)Nc1ccc(S(=O)(=O)N2CCCC2)cc1 | 0.509%
O=C(O)C1CCCN(S(=O)(=O)c2ccc(Cl)s2)C1 (centres unmarked) | 3.79%

Compound | hERG current change (%, negative = inhibition) at 1uM
O=C1CC(c2ccc(F)cc2)Cc2nc(N3CCN(c4ccccc4)CC3)ncc21 (centres unmarked) | 7.55%
COc1ccc(NC(=O)N2CCCC(C(=O)Nc3ccccc3OC)C2)cc1 (centres unmarked) | 7%
O=C(O)CSCc1nc2cccnc2n1C1CCCCC1 | 17.1%
Cc1[nH]c2ccc(-c3nnc(SCC(=O)NCc4ccco4)n3Cc3ccccc3)cc2c1C | 10.1%
COc1ccccc1-c1cc(C(=O)NCc2ccco2)no1 | 2.54%
O=C/C(=C\Nc1ccc(Cl)cn1)c1nc2ccccc2o1 | 19.2%
CCN(CC(=O)Nc1ccc(NC(C)=O)cc1)C(=O)c1cc(-c2ccccc2)nn1-c1ccccc1 | 9.47%
CCc1c(C)nc(SCC(=O)NNC(=O)Cc2ccc(OC)cc2)[nH]c1=O | 1.95%
O=C(CN1CCCC1=O)N1CCOCC1 | 4.59%
NC(=O)C1CCCN(Cc2c(C(=O)N3CCc4ccccc4C3)nc3ccc(Cl)cn23)C1 (centres unmarked) | 7.5%
CN(CC(=O)Nc1ccc(F)c(F)c1F)C(=O)Cc1ccc2c(c1)OCCO2 | 8.2%
O=C(Cc1ccccc1F)Nc1ccc(S(=O)(=O)N2CCCCC2)cc1 | 8.87%
COc1ccc2[nH]c(=O)c(CN(C)C(=O)C3CCCCC3)cc2c1 | 6.86%
O=C(COc1ccc(Cl)cc1Br)NNC(=O)C(=O)N1CCCCC1 | 13.7%
Cc1c(Cl)cccc1NC(=S)NCc1ccc(Cl)cc1 | 1.52%
COc1ccc(C(C(=O)NC(C)(C)C)N(Cc2ccc(F)cc2)C(=O)CCC(=O)Nc2cc(C)on2)cc1 (centres unmarked) | 3.49%
Nc1nc(SCC(=O)NNc2c(Cl)cc(Cl)cc2Cl)n[nH]1 | 12%
O=C(O)CCCN1C(=O)c2ccc(C(=O)c3cccc([N+](=O)[O-])c3)cc2C1=O | 9.19%
CC(C)c1ccc(NC(=O)Cc2cn(C)c3ccccc23)cc1 | 7.62%

Compound | hERG current change (%, negative = inhibition) at 1uM
Cc1ccc(-c2nc(CS(=O)(=O)CC(=O)NCCCN3CCN(C)CC3)c(C)o2)cc1 | 14.4%
O=c1[nH]cnc2c1sc1nc(-c3ccccc3)c3c(c12)CCCC3 | 5.09%
O=C1OCC(c2ccccc2)=C1c1ccccc1[N+](=O)[O-] | 2.22%
Cc1nnc(SCC(=O)NC(=O)Nc2ccc3c(c2)OCCO3)s1 | 7.61%
O=C(Nc1cccc2ccccc12)c1ccc(Cn2cc(Cl)cn2)cc1 | 6.3%
Cc1ccc(S(=O)(=O)N2CCOCC2)cc1NC(=O)CN1CCN(C)CC1 | 5.77%
Cc1ccc(S(=O)(=O)/N=C(/c2ccc(F)cc2)N2CCCC2)cc1 | 16.1%
CC(C)(C)n1nnnc1C(c1ccccc1F)N(Cc1ccco1)CC1CCCO1 (centres unmarked) | 7.72%
COc1ccc2c(c1)c(C(=O)O)c(C)n2CC(C)C | -2.31%
Nc1cc(-c2cccc(F)c2)nn1S(=O)(=O)c1cccc2nsnc12 | 8.09%
Cc1cccc(OCCCC(=O)NNC(=O)c2ccc(F)cc2)c1 | 13.2%
COC(=O)[C@@H]1C[C@]2(OC(=O)c3ccccc3)C=CC(=O)C[C@@H]2N1C(=O)OCc1ccccc1 | 11.9%
N#CC1=C(N)Oc2cc(N)ccc2C1c1ccc(F)cc1 (centres unmarked) | 7.68%
c1cncc(-c2nc3ccccc3o2)c1 | 3.36%
COC(=O)c1[nH]c2ccc(C)cc2c1NS(=O)(=O)c1ccc(F)c(C)c1 | 7.49%
CCOc1ccccc1-n1c(SCC(=O)NC(C)CC)nnc1-c1ccoc1C (centres unmarked) | -2.44%
Cc1cc(C)cc(NC(=S)NCc2cccn2C)c1 | 8.46%
C/C(=N\NC(=O)c1ccc(O)cc1)c1cccc(NC(=O)c2ccccc2C)c1 | 6.59%

From paper PMC4336329 (PLoS ONE, 2015)
